The values below come from publication PMC10726135.

The list shows a part of the results. At the low end of the ranking, values are background and their order means little. Measured with an extract: partners may take part in the binding.

The assay addresses T1, HNF4alpha2 (COS-7 nuclear extract) (UniProt P41235).
T1 sequence: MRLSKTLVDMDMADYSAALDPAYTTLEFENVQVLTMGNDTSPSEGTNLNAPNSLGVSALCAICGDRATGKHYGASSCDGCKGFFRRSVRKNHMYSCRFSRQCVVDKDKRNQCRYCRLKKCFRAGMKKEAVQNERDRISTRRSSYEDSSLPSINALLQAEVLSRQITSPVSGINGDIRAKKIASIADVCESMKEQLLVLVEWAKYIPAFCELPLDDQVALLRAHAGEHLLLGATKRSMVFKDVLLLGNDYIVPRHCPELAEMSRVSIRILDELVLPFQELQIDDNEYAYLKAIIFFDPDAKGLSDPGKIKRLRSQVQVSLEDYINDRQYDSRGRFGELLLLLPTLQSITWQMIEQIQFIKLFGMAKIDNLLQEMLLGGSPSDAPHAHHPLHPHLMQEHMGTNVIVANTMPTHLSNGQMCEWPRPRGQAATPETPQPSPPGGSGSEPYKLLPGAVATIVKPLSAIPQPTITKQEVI
Nature of the assay: protein-binding microarray. The settings on record: COS-7 nuclear extract on double-stranded Agilent 4x180k PBM; binding buffer, salt, pH and temperature not given; high values mean tight binding; double strand, one strand shown; sequences stand for … in …GCCTAGGGAGATTAGAGTATCGGTCGA
In the case of CTGGCTGCCCTGGGGTGACAGCTTTCTCCT, the binding signal (log2 normalized intensity) was -0.776. Then TTGATAACCTACAACCTTCTGAGATGGAGC, with -1.08; and TTATGAAGGGGGGTGGGGAGGCAGGTGGCT, with -1.09. Then GCATTTTTTGTAGATGCCTGCTTTCCACTC, with 0.968; and ACCACTTTGAAATAGTGACCTCTGCTGGCC, with 2.65; and ATCGCCACTGATTGAGGTTCACTCTATGTT, with 0.436. For CGCCGCTTCCCCACCCCCTCTCCTCCCTCG the value was 5.4.

As to TTTTTTTTCTTAATTGCCCTTTGCCCTTTG, the binding signal (log2 normalized intensity) came out at 8.54.

Turning to TTAACATTGCCGACCTCATGAGTAGAGAGC, the binding signal (log2 normalized intensity) is 0.0701.

As for GGTATGAGGCCAGTTTTCCTAAGGGGCTTT, the binding signal (log2 normalized intensity) was -1.08. GAGATCTGAATGGAATGAAGATACTGGATA: the binding signal (log2 normalized intensity) was -1.08. For CTATGACCTTTCACCTTTTAGCTTGGCATG the value was 4.41. For TGCTCCACCCTTCTATCCCCTTATCTAAAT the value was 2.45; for GAGGTGACGGCTAAGAGAAATCCACACAGC, -1.2. Then AGGTCATTCATGTGCAGGTTGGAATATGTG, with 2.33; and CGCTGGGGAAGAGTGTGACTGTGGTACTCC, with 0.366. Take AGTCTGCCTCTATGTGATCAGATGTGGACA: the binding signal (log2 normalized intensity) came to 1.96. Then GACCAAGCAGCTGTTTGACCAAAGCTACTC, with -1.09. For TCCACACAGCACTGACCTTTGAGAGTCAAC the value was 3.27. Then CAATAGCAAAACCTGATGTTTGGACAGTGT, with 1.84; and TTCTTGAGGCATTTATTACAGAGAGGGGGA, with -1.15; and CAGCTTTCTTTTCCAACCATTGACACTCCT, with 1.5. In the case of AAGCAAGACAATGCACTCATAACTAGGGTT, the binding signal (log2 normalized intensity) is -0.968. For the sequence CCCGGACCCTGACTCTGCAGCCGAACCGGC, the binding signal (log2 normalized intensity) was -1.13. Then GCTGGAATTTGAACCCAAGCAATCTGGCTG, with 2.14. For TAGAAAACAAGTTAGACAGTGCCTATGTTG the value was -0.264; for TATATGAGGAAGGGTGTGTAAAACAGGTGA, 1.24. Regarding CTGGATGGTGTTTGATCTGATGTACCCAGC, the binding signal (log2 normalized intensity) came to 2.34. For CAATTGCCCTACAGCTCCTGAGTCCACATG the value was 0.851; for ACCGTAAATGCATTATTGCACTGTGCTTTG, 1.49; for CAGCTGTCGTGTGAATAGCACTGACCAGCT, -1.21. Then TTACGGGGTGGTTTATCTGCCTGTGGATAG, with 1.37; and AATACTGTGCAAATCCCCGCCTTTGACACA, with 2.22. Then GGAAGGATAAGAGCAAGAAACAGCAAATGC, with -1.18.

As to TTTCCCCGTCCCAAGCTGAGGTCTGGTGTC, the binding signal (log2 normalized intensity) is 2.59.

Consider ATAGGAAAAGGGAGTTTTCTGCTCTCAACT, for which the binding signal (log2 normalized intensity) was -1.17. For GGCCTCTTCCCCAAACTAGGAGAGTGGACT the value was 2.56. For CAGGGTCAGAGGTCGCGAGGGAGAGCCCTA the value was 2.5; for AGGACTTATCCTTGGGACATTCTCACATTA, -0.165; for TTTTCCCTTCTGTTAGAATGTATTGAGAAG, 1.36.
